According to article PMC4336329 (PLoS ONE, 2015):
Screen size: about 310,000 compounds; about 2,200 (0.71%) showed an effect of 50% or more. Effects have a minus sign here. Some of the results follow.

target: human ether-à-go-go-related gene (hERG) potassium channel (human, UniProt Q12809); assay: primary screen, population patch clamp on CHO cells stably expressing hERG
Sequence (Q12809 whole entry, looked up): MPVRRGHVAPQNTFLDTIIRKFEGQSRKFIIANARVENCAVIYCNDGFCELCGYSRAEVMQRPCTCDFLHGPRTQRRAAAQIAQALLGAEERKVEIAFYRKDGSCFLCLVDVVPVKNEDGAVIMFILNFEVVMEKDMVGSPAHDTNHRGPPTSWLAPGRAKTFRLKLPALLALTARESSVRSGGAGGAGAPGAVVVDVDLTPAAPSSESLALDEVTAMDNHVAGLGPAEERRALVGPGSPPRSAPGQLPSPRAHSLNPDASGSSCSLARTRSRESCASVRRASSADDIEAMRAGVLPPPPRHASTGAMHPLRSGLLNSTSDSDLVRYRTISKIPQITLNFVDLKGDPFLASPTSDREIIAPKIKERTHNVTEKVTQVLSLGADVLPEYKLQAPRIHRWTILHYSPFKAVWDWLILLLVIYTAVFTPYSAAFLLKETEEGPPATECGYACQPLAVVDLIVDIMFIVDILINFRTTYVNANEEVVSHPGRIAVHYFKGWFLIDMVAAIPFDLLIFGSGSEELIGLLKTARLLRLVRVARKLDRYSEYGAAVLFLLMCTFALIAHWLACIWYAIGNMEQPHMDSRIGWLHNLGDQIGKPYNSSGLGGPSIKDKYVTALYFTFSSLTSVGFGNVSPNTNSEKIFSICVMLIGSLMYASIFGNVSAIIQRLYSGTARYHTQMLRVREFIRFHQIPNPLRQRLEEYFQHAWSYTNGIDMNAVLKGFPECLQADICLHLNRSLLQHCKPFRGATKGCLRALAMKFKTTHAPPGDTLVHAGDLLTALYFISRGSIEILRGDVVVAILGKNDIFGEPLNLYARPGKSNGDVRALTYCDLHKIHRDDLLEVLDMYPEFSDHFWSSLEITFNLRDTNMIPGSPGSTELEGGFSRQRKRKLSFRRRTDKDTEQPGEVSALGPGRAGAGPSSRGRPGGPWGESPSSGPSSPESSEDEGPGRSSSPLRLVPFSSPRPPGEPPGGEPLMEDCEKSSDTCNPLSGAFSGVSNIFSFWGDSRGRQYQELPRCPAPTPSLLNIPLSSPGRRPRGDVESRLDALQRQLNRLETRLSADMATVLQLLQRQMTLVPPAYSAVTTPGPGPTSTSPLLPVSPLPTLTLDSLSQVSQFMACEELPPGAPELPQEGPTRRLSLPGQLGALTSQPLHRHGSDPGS

Compound | hERG current change (%, negative = inhibition) at 1uM
COc1ccc(-c2noc3c2-c2nc(-c4ccccc4F)sc2CC3)cc1 | 6.56%
CCOC(=O)CON1C(=O)C(C)(C)N(OCC(=O)OCC)C(=O)C1(C)C | 15.7%
O=C1COc2ccc(C(=O)c3ccccc3)cc2CN1 | 11.6%
CC1(c2ccccc2)CC(c2ccccc2)=Nc2nonc2N1 (centres unmarked) | 0.0258%
CS(=O)(=O)Nc1cccc(C2=NN(C(=O)c3cccc(F)c3)C(c3cccs3)C2)c1 (centres unmarked) | 11.7%
CCN1C(=O)N(S(=O)(=O)c2ccc(C)cc2)[C@@H](c2ccccc2)C(C(=O)OC)=C1C | 6.53%
COCCn1c(-c2ccc(OC)cc2)nc2ccccc21 | 9.33%
O=C1CCC(=O)N1CN(C(=O)c1ccco1)c1ccccc1 | 17.4%
N/C(=N\N=C\c1ccc2c(c1)OCO2)SC1CC(=O)N(c2ccc(C(=O)O)cc2)C1=O (centres unmarked) | 11.4%
COc1ccc(NC(=O)CSc2nnc(N)n2CC(=O)Nc2ccc(OC)cc2)cc1 | 7.38%
COc1ccccc1-n1cnc2cc(NC(C)=O)ccc21 | 15.2%
CC1CC(C)CN(c2nc(N(C)c3ccccc3)nc(N)c2[N+](=O)[O-])C1 (centres unmarked) | 8%
Cc1ccc(C(=O)NCC(=O)NC2CCCCCC2)cc1 | 5.94%
O=[N+]([O-])c1ccc2c(c1)nc(CO)n2Cc1ccccc1 | 19.6%
Cc1nc(C)n(CC(O)COc2ccc3ccccc3c2)n1 (centres unmarked) | -0.527%
O=c1c2ccccc2[nH]c(=S)n1CCCN1CCOCC1 | 8.76%
CCOC(=O)C1CCN(Cc2cc(Cl)c3ccccc3c2O)CC1 | 13.8%
COc1ccc(C(=O)NC2CCN(CC(=O)NCc3ccccc3)CC2)cc1 | 1.4%
COc1cccc(/C=C/c2ccc3cccc(O)c3n2)c1OC | 13.6%

Compound | hERG current change (%, negative = inhibition) at 1uM
C=CCN1C(=O)CSC1=Nc1cccc(O)c1 | 2.94%
O=C(OCC(=O)N1CCCC1)c1cc(Br)ccc1Cl | 0.487%
Nc1ccc(O)cc1C(=O)OCC(=O)C12CC3CC(CC(C3)C1)C2 | 11.3%
CCCCCCc1ccc(N2C[C@H](CCCCC)[C@@H](CC(=O)NCc3ccccc3)C2=O)cc1 | 4.33%
CCC(C)c1ccc(O)c(/C=N/O)c1 (centres unmarked) | 8.47%
CC12CC(NC(=O)N1c1cccc(C(=O)N3CCN(c4ccccc4F)CC3)c1)c1ccccc1O2 (centres unmarked) | 0.757%
COc1ccc(C(O)(CCC(C)C)C(CN2CCOCC2)c2ccc(Cl)cc2)cc1.Cl (centres unmarked) | -1.97%
Cc1ccc(OCC(=O)Nc2ccncc2)cc1 | 12.6%
O=C(Nc1ccn(Cc2c(F)c(F)c(F)c(F)c2F)n1)c1ccc(COc2ccccc2Cl)cc1 | 10%
CCOc1cc(C(=S)N2CCOCC2)ccc1O | 1.25%
Cc1ccc(NC2=NCC(=O)N2C2CCCC2)cc1.Cl | 13.9%
COc1c(C(=O)Nc2ccc(CN3CCOCC3)cc2)cc2ccccc2c1Br | -2.39%
O=C(CN1C2CCCC1CC(NC(=O)c1ccco1)C2)Nc1ccccc1 (centres unmarked) | -7.65%
Cc1ccc(C(=O)Nc2ncccc2O)cc1S(=O)(=O)N1CCCCC1 | 7.13%
CCC(=O)c1ccc(OCC(=O)Nc2ccccc2C(=O)NC2CC2)cc1 | 6.29%
COc1ccc(CCN(C)C(=O)CSc2nnc(-c3ccco3)o2)cc1OC | 2.84%
CC1Cc2ccccc2N1C(=O)COC(=O)c1ccc(N(C)C)cc1 (centres unmarked) | 11%
O=S(=O)(NCC1CCCO1)c1cnc(Cl)c(Cl)c1 (centres unmarked) | 6.56%
Cc1cc(NC(=O)C23CC4CC(CC(C4)C2)C3)n[nH]1 | 4.25%

Compound | hERG current change (%, negative = inhibition) at 1uM
COc1cc(/C=N/n2cnc3scc(-c4cccs4)c3c2=O)cc(OC)c1OC | 11.5%
CC(=O)C1=C(NC(=O)c2ccc(C(F)(F)F)cc2)C[C@@H]2[C@H]1C2(C)C | 11.5%
CC1CCC2C(=O)N(c3ccc(S(=O)(=O)c4ccccc4)cc3)C(=O)C2C1 (centres unmarked) | 8.98%
Cc1nc(-c2noc(-c3ccc(Cl)cc3)n2)c(C(F)(F)F)o1 | 15.8%
Cc1cccc(-n2ncc3c(NCCN4CCOCC4)ncnc32)c1 | -4.67%
COC(=O)c1ccc(S(=O)(=O)N(Cc2ccccc2)Cc2ccccc2)n1C | 1.95%
O=C(N/N=C/c1ccccc1F)c1cccc2ccccc12 | 9.02%
CC(C)NC(=O)C(c1ccc(F)cc1)N(C(=O)CCC(=O)Nc1ccccn1)c1cccc(F)c1 (centres unmarked) | 10.9%
CC1(C)CC(=O)C2=C(C1)N1C(=C(C#N)C2c2ccc(Cl)cc2)N=C(N)c2ccccc21 (centres unmarked) | 0.0227%
O=C1[C@@H]2C(c3cccnc3)=NO[C@@H]2C(=O)N1c1ccc2ccccc2c1 | 14%
O=C(NC1CCN(Cc2ccccc2)CC1)c1ccc(Oc2cc(Cl)cc(Cl)c2)o1 | 9.24%
CC(C)Cc1nnc(NC(=O)CCC(=O)N2CCN(c3ccccc3)CC2)s1 | 9.93%
Cn1nc(C(=O)Nc2cccc(Cl)c2)cc1C(=O)Nc1cccc(Cl)c1 | 15.3%
C=CCNC(=O)C(=O)NN=C1CCN(C)CC1 | 5.04%
CC(=O)Nc1ccc(N=c2cc([N+](=O)[O-])cc(Cl)n2O)cc1 | 4.56%
O=C(C[n+]1cccc(CNC(=O)c2ccc(OC(F)F)cc2)c1)Nc1ccccc1Cl.[Cl-] | 3.85%
CCCCNC(=O)CCC(=O)Nc1ccc2nc(N3CCC(C)CC3)cc(C)c2c1 | 2.82%
O=c1nccc(SCc2ccc(Cl)cc2Cl)[nH]1 | 7.61%
